From PubChem BioAssay (NCI) come the findings set out here.

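48-hour exposure; five concentrations; linearly interpolated endpoints. At the GI50, growth is halved. TGI: total growth inhibition.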

The test system of the assay is NCI-H322M lung. Put plainly: NCI tumour cell line growth inhibition, 48 h.

Take `C=C(C)[C@@H]1CC[C@]2(COCCCNCCCN)CC[C@]3(C)[C@H](CC[C@@H]4[C@@]5(C)CC[C@H](O)C(C)(C)[C@@H]5CC[C@]43C)[C@@H]12`: the GI50 is 1.68 µM and the TGI was 3.09 µM.
